Results published in the supplement of paper PMC3334620.
In all, about 33,000 sequences were measured (“E-score (-0.5 to 0.5)”: median about -0.04, highest 2% from about 0.36 on). This is one part of the list.

Target: T1, Hmlalpha2 (UniProt P0CY09)
T1 sequence: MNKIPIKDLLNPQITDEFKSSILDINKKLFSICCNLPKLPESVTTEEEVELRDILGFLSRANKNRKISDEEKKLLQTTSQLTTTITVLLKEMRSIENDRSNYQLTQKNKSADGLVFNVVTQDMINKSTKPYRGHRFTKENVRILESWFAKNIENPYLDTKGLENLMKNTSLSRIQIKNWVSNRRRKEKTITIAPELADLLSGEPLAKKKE
Assay: PBM E-score (8-mer binding enrichment) (E-score (-0.5 to 0.5)); higher = stronger / more preferred TF binding; most listed sequences are background and not binding sites
Details: protein concentration: 200 nM; construct: GST-full length
Summary of the method: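 E-scores (a modified Wilcoxon-Mann-Whitney statistic) were assigned by the Universal PBM Analysis Suite to every ungapped eight-base word pooled with its reverse complement. The input came from universal all-10-mer Agilent arrays made double-stranded by primer extension and probed with GST-tagged yeast transcription factors at about 100-200 nM. Fluorescent anti-GST detected bound protein, and masliner normalised the scans.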

| Sequence | PBM E-score |
| --- | --- |
| CCCCAACC | -0.00111 |
| CCCGGGAG | -0.273 |
| GTGTCAGA | 0.134 |
| ACTGCTCT | -0.114 |
| GTACTGCA | 0.0337 |
| GACCAATC | -0.0482 |
| TCCCTGCA | -0.119 |
| GACGTGCC | -0.157 |
| ATGGCCTA | -0.136 |
| AGGGGGTC | -0.268 |
| GTTGAGAA | 0.0596 |
| ATTAACGG | -0.00314 |
| AGCATCGA | -0.0691 |
| AACATCTT | -0.0095 |
| TGTGCGAA | -0.0881 |
| ATGCAAGA | 0.0433 |
| ACCAGGCG | -0.205 |
| GAAGTCTA | -0.303 |
| AGGATAAT | 0.0118 |
| GCAATGAC | -0.0935 |
| CGGTAGTC | -0.242 |
| TCCCACAA | -0.152 |
| CCATTAAG | -0.0773 |
| AAAACATT | 0.242 |
| AGAAATAT | 0.203 |

| Sequence | PBM E-score |
| --- | --- |
| CGGAGTAA | 0.101 |
| GACGTGGC | -0.0942 |
| CGTCGAGA | 0.0934 |
| AATAACTA | 0.194 |
| TAATAAGA | 0.145 |
| CTTATTCA | -0.108 |
| ATTAAAAT | 0.164 |
| ATCCCTGG | -0.157 |
| CGGGACTC | -0.163 |
| GCTTTGGA | 0.0733 |
| AACATCGC | 0.139 |
| AATTGGAT | 0.0519 |
| CAACTCCA | -0.13 |
| AAACACGC | 0.426 |
| GACCTCTA | -0.116 |
| CAAGTAGG | -0.0322 |
| GACGATCA | -0.17 |
| GTCATAAA | 0.0969 |
| ACGTCGCG | 0.15 |
| CTGACTCA | -0.179 |
| CAGTACGC | 0.001 |
| ACTAGATA | 0.14 |
| CAATGTGG | 0.00899 |
| ATAGTTTC | -0.178 |
| ATAAAGTG | 0.0424 |

| Sequence | PBM E-score |
| --- | --- |
| CCTAGGAA | -0.125 |
| GATGTCTA | 0.0462 |
| CTGAAGCC | -0.0445 |
| CCTTTACG | 0.223 |
| AATGGAAT | 0.0921 |
| AAGTTATT | 0.24 |
| CAGTCGAA | -0.144 |
| GATCTGAA | -0.205 |
| ACCTTCAT | -0.0921 |
| GGCCATCA | -0.139 |
| ACGCTAAA | 0.11 |
| GGCGAGAC | -0.169 |
| ATTTTGTC | 0.193 |
| CCTTTCCA | -0.192 |
| CGATAACC | -0.144 |
| GCCTCTAA | -0.179 |
| GGTCAGAC | -0.258 |
| ATCCATCA | -0.0947 |
| CAGTGCCC | -0.177 |
| AATACTCC | -0.0353 |
| GAACTAAC | 0.0988 |
| CGTCGGGC | -0.386 |
| CTTATCCC | -0.164 |
| ACTGAGGC | -0.0961 |
| AACTGGAT | -0.0477 |

| Sequence | PBM E-score |
| --- | --- |
| AATCTATC | -0.0178 |
| GACCTTTA | 0.0506 |
| GCACGGGA | -0.229 |
| CTGCCCGC | -0.0703 |
| CGGTTATA | -0.0823 |
| GAAGCGTA | -0.0924 |
| GGCCGCGA | -0.243 |
| AGGAATTG | 0.0127 |
| CAGCTGAA | -0.0535 |
| ATCCCGGG | 0.0307 |
| CCGAGTAG | -0.137 |
| ATCTCCGA | -0.0813 |
| CGCACAAC | 0.0906 |
| TCTTCACA | 0.227 |
| ATGAAGCC | 0.0472 |
| ACTGAGTC | -0.0808 |
| CACCTAGC | -0.283 |
| GTGATATA | -0.105 |
| TGTCACAA | 0.196 |
| CTATACCC | -0.164 |
| CTTACCAA | 0.166 |
| ACTAACCT | 0.169 |
| GTACCGCA | 0.0483 |
| AATGAATA | 0.153 |
| CGGACGAG | -0.162 |

| Sequence | PBM E-score |
| --- | --- |
| GCCTGTCC | -0.296 |
| CCAACACG | 0.375 |
| GATGCTGA | -0.234 |
| GACGCTAC | 0.0806 |
| ACGGAAAG | -0.0789 |
| ACGACCCC | -0.127 |
| CTACTAGC | 0.0608 |
| GGCCCCCA | -0.323 |
| ACTCAAAC | 0.101 |
| AACAATTG | 0.0127 |
| GGGGGGTA | -0.246 |
| CTCAGCGC | -0.135 |
| GACTTACC | -0.187 |
| ACAACAGT | -0.0464 |
| AACGGCAT | 0.0556 |
| CAGATGAC | -0.022 |
| TCCGCAGA | -0.148 |
| ATCCGCGC | -0.185 |
| AATCTCGG | -0.125 |
| CGTGAGAC | -0.126 |
| GATCAACA | 0.341 |
| CACGAGCA | -0.0152 |
| AAACCTGG | -0.097 |
| AAATCACG | 0.155 |
| CCCTCAGC | -0.344 |

| Sequence | PBM E-score |
| --- | --- |
| CCCGCGGC | -0.141 |
| GGCCTCAA | 0.0694 |
| AGCCCCGG | -0.262 |
| CATACATG | 0.382 |
| AGAGGAAG | -0.206 |
| GGGCGCGA | -0.164 |
| CTCCAAGC | -0.132 |
| CAGCCTCC | -0.332 |
| ACTCGCAA | 0.203 |
| ATGTTACG | 0.351 |
| GGGTTTTA | 0.122 |
| ACGCCCGG | -0.193 |
| CTTTACTC | 0.187 |
| AAGTCTTG | -0.0403 |
| CGGGGCTA | -0.0915 |
| ATAAAGTA | 0.14 |
| AAAAGCTA | 0.052 |
| CACCCTCA | -0.229 |
| AGTACCCA | 0.0134 |
| CTGCTCCC | -0.218 |
| TCCTTAAA | -0.088 |
| ATTGCGTA | 0.296 |
| AAGTGGCC | -0.179 |
| AAGTACTA | 0.233 |
| CATCCGCG | 0.0155 |

| Sequence | PBM E-score |
| --- | --- |
| ATAGCTAT | -0.127 |
| AATGACGT | 0.0905 |
| TGATCCAA | 0.0278 |
| ACTATACA | 0.213 |
| CGAGGGTA | -0.233 |
| TAATATGA | 0.0958 |
| CGTAATGA | 0.317 |
| ATAAGGAT | 0.0918 |
| ACAGCTTA | 0.0827 |
| CTTGAAGA | -0.124 |
| GCTGGTAA | -0.0507 |
| CGGCATCA | -0.0398 |
| CTCGAGAA | -0.0363 |
| GTAAAACA | 0.344 |
| AGTAGTTA | 0.117 |
| AGTCGGAT | -0.0674 |
| ATGCTAGG | -0.0712 |
| CGCTATGA | 0.0127 |
| CGGCGTCC | -0.0604 |
| ACCGCTAC | -0.134 |
| AGTCGCCC | -0.198 |
| CGAGCCCA | -0.079 |
| AAGTCATT | -0.0479 |
| CAATGAGC | -0.109 |
| TATAAAAA | 0.275 |

| Sequence | PBM E-score |
| --- | --- |
| AGAGGTAG | -0.0868 |
| AAGCCTAA | -0.103 |
| CTAGACTC | -0.307 |
| ATGCATGA | 0.177 |
| ATACCGTC | -0.106 |
| CAATTGTG | 0.151 |
| CATGAGCA | 0.00254 |
| AAGTCTCC | -0.0711 |
| CTGATACA | 0.0773 |
| CGACTACG | 0.0352 |
| CGCAGATC | 0.052 |
| AAACTCAT | 0.193 |
| AGCCACAC | -0.0838 |
| TAAACTCA | 0.184 |
| CGGCGCCG | -0.0854 |
| CGAGTCAA | 0.0736 |
| AGACATGC | 0.171 |
| AACTCTCC | -0.112 |
| CGAAACAG | -0.215 |
| TGCGTGAA | 0.257 |
| GCTACCAC | -0.0738 |
| AGGTGCAT | 0.072 |
| CAGCTGTC | -0.127 |
| AAGGGGTA | -0.0636 |
| AACACCGA | 0.193 |

| Sequence | PBM E-score |
| --- | --- |
| GTCTTGCA | 0.0355 |
| GCATCACA | 0.18 |
| AGCTCGCC | -0.174 |
| GCATCGAA | -0.157 |
| AATCTACT | 0.098 |
| ATTCGTGG | -0.033 |
| CTGCGGGA | -0.26 |
| GCCTACAC | 0.22 |
| AGACCGTG | 0.194 |
| ACGTGAGC | 0.0336 |
| ACCCAGGG | -0.0987 |
| TAACATCA | 0.338 |
| GAATCCGC | -0.252 |
| TAGGACGA | -0.145 |
| CCGACCGC | -0.276 |
| GTCTGACA | 0.0205 |
| ACGCGTCA | 0.339 |
| ATTTAAGC | 0.109 |
| CGAATCCA | -0.014 |
